Among all 390,000 compounds or so, about 17,000 (4.4%) were called active. Inconclusive means that the source gave no clear call. Such entries were picked first, then a sample of the others. Calls follow the shape of the dose curve; as a rule, active = well fitted inhibition curve with a large enough effect; inconclusive = small, poorly fitted or top-dose-only effect; inactive = no such curve, though single readings can be large or run the other way. Potencies of inconclusive entries are doubtful fits and often do not repeat. Some compounds were tested as several samples or in several runs, with calls that do not always agree.
Each compound was assayed against Lysine-specific demethylase 4A (Homo sapiens) (UniProt O75164) (assay: qHTS Assay for Inhibitors of JMJD2A-Tudor Domain). Details: AlphaScreen JMJD2A-Tudor / H3K4me3 peptide binding; activity change, negative = inhibition: at 114 µM (top of the series).
Sequence of UniProt O75164 (O75164 whole entry, looked up, the tested form may be a part): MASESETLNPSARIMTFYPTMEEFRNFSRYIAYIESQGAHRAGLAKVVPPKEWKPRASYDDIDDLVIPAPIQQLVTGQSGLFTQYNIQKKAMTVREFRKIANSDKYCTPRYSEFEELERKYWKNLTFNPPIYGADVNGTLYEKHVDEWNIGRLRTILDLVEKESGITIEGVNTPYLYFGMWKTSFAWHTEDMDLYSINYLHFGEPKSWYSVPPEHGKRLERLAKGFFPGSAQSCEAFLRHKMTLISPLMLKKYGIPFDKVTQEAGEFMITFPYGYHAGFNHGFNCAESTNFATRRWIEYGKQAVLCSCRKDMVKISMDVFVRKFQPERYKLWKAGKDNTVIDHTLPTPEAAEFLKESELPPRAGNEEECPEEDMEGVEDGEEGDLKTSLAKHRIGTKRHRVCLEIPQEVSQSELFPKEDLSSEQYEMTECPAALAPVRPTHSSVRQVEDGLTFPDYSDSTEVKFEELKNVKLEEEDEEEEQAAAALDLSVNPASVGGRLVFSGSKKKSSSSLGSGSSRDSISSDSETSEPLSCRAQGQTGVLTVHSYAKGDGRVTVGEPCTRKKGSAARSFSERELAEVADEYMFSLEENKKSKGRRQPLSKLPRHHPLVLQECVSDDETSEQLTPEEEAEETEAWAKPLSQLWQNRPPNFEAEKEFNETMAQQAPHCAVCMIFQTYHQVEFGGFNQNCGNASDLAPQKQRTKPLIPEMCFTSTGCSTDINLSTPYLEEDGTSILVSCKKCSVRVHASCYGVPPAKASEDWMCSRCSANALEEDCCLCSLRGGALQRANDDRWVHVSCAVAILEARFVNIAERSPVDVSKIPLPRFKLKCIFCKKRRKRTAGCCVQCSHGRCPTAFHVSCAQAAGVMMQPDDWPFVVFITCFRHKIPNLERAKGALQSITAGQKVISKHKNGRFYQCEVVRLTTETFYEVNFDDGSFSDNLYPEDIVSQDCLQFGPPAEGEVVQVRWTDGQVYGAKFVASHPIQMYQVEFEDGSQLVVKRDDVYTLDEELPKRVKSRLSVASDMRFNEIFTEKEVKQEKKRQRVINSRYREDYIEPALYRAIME
With `CN1CCN(CC#CCOc2ccc(Cl)cc2)CC1` the Potency was active: 7.94 µM. With `COc1ccc(N2CCN(C(=O)C3CCCN(S(=O)(=O)c4ccc5c(c4)CCCN5C(C)=O)C3)CC2)cc1` (stereo not given) the Potency was inconclusive: 56.2 µM [inhibitor, partial curve]. In the case of `Nc1c2c(nc3ccccc13)CCN(Cc1ccccc1)C2`, the Potency is reported as inconclusive: 39.8 µM [inhibitor, single point]. With `CN1CCN(Cc2nnc3n2-c2ccc(Cl)cc2C(c2ccccc2)=NC3)CC1` the Potency was inconclusive: 31.6 µM [inhibitor, single point]. With `Ic1ccccc1CN[C@@H]1C2CCN(CC2)[C@@H]1C(c1ccccc1)c1ccccc1` the Potency was active: 17.8 µM. For `CCCCN1C(=O)/C(=C\c2ccco2)C(=O)N(CCc2ccccc2)C1=O`, the Potency was inconclusive: 39.8 µM [inhibitor, single point]. For `CC1CCCN1CCC(C(N)=O)(c1ccccc1)c1ccccc1` (stereo not given), the “activity change, negative = inhibition” value was inactive: -13.8%. `CC/C(=N\NC(N)=O)c1c(O)[nH]c(=O)[nH]c1=O` was tested, and the “activity change, negative = inhibition” value was inactive: -21.7%. `c1ccc(C2NCc3ccccc3-n3cccc32)cc1` (stereo not given) was tested, and the Potency was inconclusive: 35.5 µM [inhibitor, partial curve]. For `COc1cc2c(cc1OC)-c1c(OC)c(OC)c(OC)c3ccnc(c13)C2=O`, the Potency was inconclusive: 12.6 µM [inhibitor, full curve]. With `Nc1ccc2c(c1)Cc1ccccc1-2` the Potency was inconclusive: 12.6 µM [inhibitor, full curve]. For `Cc1[nH]c2ccccc2c1CCCNC1CCCCC1`, the Potency was inconclusive: 15.8 µM [inhibitor, full curve, poor fit]. `C=CCn1c(O)c(C(CC)=Nc2ccc(C(=O)O)cc2)c(=O)[nH]c1=O` was tested, and the Potency was inconclusive: 79.4 µM [inhibitor, partial curve]. For `CCC1(C)CC(CCNCc2ccc(N(C)C)cc2)(c2ccc(F)cc2)CCO1` (stereo not given), the Potency was active: 44.7 µM. For `Fc1ccccc1N1CCN(Cc2ccc3c(c2)OCO3)CC1`, the Potency was active: 3.55 µM. For `COc1ccc(O)c(CN2CCCC(C(=O)c3ccccc3SC)C2)c1` (stereo not given), the Potency was active: 56.2 µM. For `CCOC(=O)c1cc2c(cn1)[C@@H](CCO)NC2`, the Potency was active: 44.7 µM. `COc1ccc2c(c1)CC1(CN2C)C(=O)NC(=O)N(CCc2ccccc2)C1=O` (stereo not given) was tested, and the “activity change, negative = inhibition” value was inactive: -32.1%. `CC(C)=CCOc1c2occc2cc2ccc(=O)oc12` was tested, and the Potency was inconclusive: 17.8 µM [inhibitor, full curve]. `N[C@@H](Cc1ccc(N(CCCl)CCCl)cc1)C(=O)O` was tested, and the “activity change, negative = inhibition” value was inactive: -26.6%. For `Cc1ccccc1N1CCN(S(=O)(=O)c2nnc(NC(=O)c3ccc(Cl)cc3)s2)CC1`, the Potency was inconclusive: 126 µM [inhibitor, partial curve, poor fit]. For `COc1ccccc1OCC#CCN1CCOCC1`, the Potency was inconclusive: 31.6 µM [inhibitor, full curve, poor fit]. `CCOc1cc(C=C2C(=O)NC(=O)NC2=O)ccc1OS(=O)(=O)c1ccccc1` was tested, and the Potency was active: 79.4 µM. `Cc1cccc(N2CCc3c2nc2ccccc2c3N)c1` was tested, and the Potency was active: 3.16 µM. `Cc1[nH]n(-c2ccccc2)c(=O)c1C(c1ccc([N+](=O)[O-])cc1)c1c(C)[nH]n(-c2ccccc2)c1=O` was tested, and the Potency was active: 17.8 µM. `Cc1ccc(-c2nn(Cc3ccccc3)cc2C=O)cc1` was tested, and the “activity change, negative = inhibition” value was inactive: 27.3%. `CN1CCN(c2cccc3c2C(=O)c2ccccc2C3=O)CC1` was tested, and the Potency was inconclusive: 50.1 µM [inhibitor, partial curve]. `CCOC(=O)c1ccc(S(=O)(=O)n2c(=O)oc3ccccc32)cc1` was tested, and the Potency was inconclusive: 2.82 µM [inhibitor, partial curve, poor fit]. `COc1ccc2[nH]c(C)c(CCN3CCC(=O)C(C)C3C)c2c1` (stereo not given) was tested, and the Potency was inconclusive: 56.2 µM [inhibitor, partial curve]. For `CC1C(c2cccs2)=[N+]([O-])C(C)(C(=O)c2ccc(F)cc2)N1O` (stereo not given), the “activity change, negative = inhibition” value was inactive: -14%. For `Cc1ccc(Cl)cc1N1CCN(C(=O)C2CCN(Cc3nc(-c4ccc(Cl)cc4)oc3C)CC2)CC1`, the Potency was inconclusive: 50.1 µM [inhibitor, partial curve]. In the case of `CC(=O)Nc1ccccc1OC(=O)N(C)C`, the Potency is reported as inconclusive: 79.4 µM [inhibitor, partial curve]. `CCCCCCC[n+]1ccc(-c2cc[n+](CCCCCCC)cc2)cc1` was tested, and the Potency was inconclusive: 39.8 µM [inhibitor, single point]. `COc1cc(/C=C/[N+](=O)[O-])ccc1O` was tested, and the Potency was inconclusive: 28.2 µM [inhibitor, full curve]. `CN1C(=O)NC(=O)/C(=C\C=C\c2ccccc2[N+](=O)[O-])C1=O` was tested, and the Potency was inconclusive: 100 µM [inhibitor, partial curve]. `O=c1c2ccccc2nc(-c2ccccc2)n1-n1cccc1` was tested, and the Potency was inconclusive: 39.8 µM [inhibitor, single point]. In the case of `CCC(C)n1c(O)c(/C=N/Nc2nc3c(c(=O)n(C)c(=O)n3C)n2C)c(=O)[nH]c1=S` (stereo not given), the Potency is reported as active: 79.4 µM. `CCCCCCN1CCN(c2ccccc2Cl)CC1` was tested, and the Potency was active: 56.2 µM. In the case of `C=CCn1c(-c2ccc([N+](=O)[O-])cc2)n[nH]c1=S`, the Potency is reported as active: 8.91 µM. With `O=C(Nc1ccc(F)cc1)c1c(O)c2c(n(Cc3ccccc3)c1=O)CCCC2` the Potency was inconclusive: 39.8 µM [inhibitor, single point]. With `CC(C)c1ccc(N2C(=O)NC(=O)/C(=C\C=C\c3ccco3)C2=O)cc1` the Potency was inconclusive: 89.1 µM [inhibitor, partial curve]. With `CC(C)CCN(N=O)[C@@H](Cc1ccccc1)CN(N=O)[C@@H](Cc1ccccc1)CN(C)N=O` the Potency was inconclusive: 28.2 µM [inhibitor, full curve]. `O=C(C1CCN(CC2CCCCC2)CC1)N1CCCC1` was tested, and the Potency was active: 50.1 µM. In the case of `COc1ccccc1CNCC(=O)Nc1cc(S(=O)(=O)N2CCCCC2)ccc1C`, the Potency is reported as active: 1.78 µM. `Cc1ccccc1-c1ccc2n1Cc1cnnn1-c1ccccc1-2` was tested, and the Potency was active: 50.1 µM. With `COc1ccc2nc(/N=C/c3c(O)n(-c4cccc(Cl)c4)c(=O)[nH]c3=O)sc2c1` the Potency was inconclusive: 28.2 µM [inhibitor, partial curve]. With `O=c1[nH]c(O)c(N=Nc2cc([N+](=O)[O-])ccc2O)c(=O)[nH]1` the Potency was active: 89.1 µM. `Cc1onc(-c2ccccc2Cl)c1C(=O)OCC(=O)c1ccc2c(c1)OCCO2` was tested, and the Potency was inconclusive: 89.1 µM [inhibitor, single point]. In the case of `CC(Cc1ccccc1)NC(N)=O` (stereo not given), the “activity change, negative = inhibition” value is reported as inactive: 1.37%. With `COc1ccc(CN2CCN(Cc3ccccc3)CC2)c(OC)c1` the Potency was inconclusive: 28.2 µM [inhibitor, partial curve]. In the case of `C=Cn1ccnc1P(=S)(c1ccc(N(C)C)cc1)c1nccn1C=C`, the Potency is reported as inconclusive: 63.1 µM [inhibitor, partial curve]. `COc1cccc2c1C(=O)c1c(O)c3c(c(O)c1C2=O)CC(O)(C(C)=NO)CC3OC1CC(N)C(O)C(C)O1` (stereo not given) was tested, and the Potency was inconclusive: 39.8 µM [inhibitor, partial curve]. In the case of `Nc1ncnc2c1ncn2[C@@H]1O[C@H](COP(=O)(O)CP(=O)(O)O)[C@@H](O)[C@H]1O`, the Potency is reported as active: 79.4 µM. In the case of `Clc1ccc2c(c1)C(OC1CN3CCC1CC3)c1ccccc1CS2` (stereo not given), the Potency is reported as inconclusive: 56.2 µM [inhibitor, partial curve]. With `Cn1cccc1/C=C1/C(=O)NC(=O)N(Cc2ccccc2)C1=O` the “activity change, negative = inhibition” value was inactive: -33.8%. For `CCOc1cc2c(cc1OCC)-n1cccc1C(c1ccc(OC)c(OC)c1)NC2` (stereo not given), the Potency was inconclusive: 56.2 µM [inhibitor, partial curve]. In the case of `O=C(c1ccccc1F)c1cn(CC(=O)N2CCOCC2)c2ccccc12`, the Potency is reported as inconclusive: 79.4 µM [inhibitor, single point]. For `CN1C(=O)C(=Cc2ccc(N3CCCCCC3)o2)C(=O)N(C)C1=S`, the Potency was inconclusive: 50.1 µM [inhibitor, partial curve, poor fit]. `Cc1ccc(C(=O)c2cn(CC(=O)Nc3ccc(C(C)C)cc3)c3nc(C)ccc3c2=O)cc1` was tested, and the Potency was inconclusive: 50.1 µM [inhibitor, partial curve]. With `O=C1CC(N2CC=C(c3ccccc3)CC2)C(=O)N1c1ccc(F)cc1` (stereo not given) the Potency was inconclusive: 79.4 µM [inhibitor, partial curve]. For `COc1ccc(NC(=O)CCc2nc(C3=CCN(Cc4cccc(Cl)c4)CC3)no2)cc1OC`, the Potency was active: 56.2 µM. With `O=C(Cc1ccccc1)Oc1coc(CSc2ncccn2)cc1=O` the Potency was active: 14.1 µM. `CSc1nn(-c2ccc(C(=O)OCC(=O)NC(=O)NC(C)C)cc2)c(=S)s1` was tested, and the Potency was inconclusive: 56.2 µM [inhibitor, partial curve]. For `Cc1ccc(-c2csc(NC(CO)c3nc4ccccc4n3CCOCCO)n2)cc1` (stereo not given), the Potency was inconclusive: 44.7 µM [inhibitor, partial curve]. `COC(=O)C1=C(c2ccc(S(C)(=O)=O)cc2)C[C@@H]2CC[C@H]1N2C(=O)N1CCCCC1` was tested, and the Potency was inconclusive: 20 µM [inhibitor, full curve, poor fit]. In the case of `COC(=O)CSc1n[nH]c(=S)s1`, the Potency is reported as inconclusive: 70.8 µM [inhibitor, single point]. `O=C(Cn1ncc2c3ccccc3n(Cc3cccc(Cl)c3)c2c1=O)N1CCC2(CC1)OCCO2` was tested, and the Potency was inconclusive: 56.2 µM [inhibitor, partial curve]. With `COc1ccc(C(=O)C2CCCN(Cc3ccon3)C2)c(OC)c1` (stereo not given) the “activity change, negative = inhibition” value was inactive: -29.9%. For `Cc1cc(Oc2cc(NN3CCCCC3)c([N+](=O)[O-])cc2[N+](=O)[O-])ccc1[N+](=O)[O-]`, the Potency was active: 17.8 µM. With `O=C1CNC(c2ccccc2Cl)c2cc(Br)ccc2N1` (stereo not given) the Potency was inconclusive: 89.1 µM [inhibitor, single point].
% is scaled to controls: 0 for no effect and ±100 for the full control effect; potency is read from the fitted curve at half-maximal effect; tags tell the direction and shape of the fitted curve.
Also: nearly all actives have a fitted effect of over 50% in size.
